# The supplement of paper PMC3724861
# The list shows a part of the results.
# Tested on: T1, Caupolican (Caup) homeodomain DNA-binding domain
# T1 sequence: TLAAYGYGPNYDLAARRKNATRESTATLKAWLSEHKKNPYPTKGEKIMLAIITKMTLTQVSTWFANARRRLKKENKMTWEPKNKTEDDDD
# Assay: PBM E-score (8-mer, recovered from the published 9-mer minima) (E-score (dimensionless, -0.5 to 0.5)); Drosophila protein; higher = stronger relative binding preference, active = 0.31 or more
# Experimental: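 Protein binding microarray (PBM): in vitro transcribed/translated Caupolican (Caup) homeodomain DNA-binding domain (residues 214-303) applied at 100 nM to a universal 8-mer PBM array (Agilent AMADID 015681). The 8-mer enrichment score (E-score, range -0.5 to 0.5) was computed, and each 9-mer score is the minimum E-score of its two constituent 8-mers. The E-score is the same for a 9-mer and its reverse complement; 0.31 is the stated binding threshold.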
row,Sequence,PBM E-score
1,AAATTTCG,inactive: 0.0516
2,AGCAGCCT,inactive: -0.0531
3,ACACGGGG,inactive: 0.0798
4,AGGAAACC,inactive: -0.0942
5,AGTCAGTG,inactive: 0.0423
6,CTTGCCCA,inactive: -0.155
7,GACGGAAA,inactive: -0.0259
8,AACACTGT,inactive: 0.211
9,AATGAGAG,inactive: -0.111
10,ATACTACA,active: 0.364
11,AACTTAAA,inactive: 0.147
12,CACCAGCG,inactive: -0.101
13,CCGCGGAC,inactive: -0.13
14,ATTGGCCC,inactive: -0.2
15,GGACGACA,inactive: 0.205
16,GGTAGTGA,inactive: 0.0412
17,CGCAGAAA,inactive: -0.0964
18,CAGTAAAG,inactive: 0.00549
19,AACGTTTC,inactive: 0.0161
20,CCATAAGA,inactive: -0.046
21,GAACTAGC,inactive: 0.0335

row,Sequence,PBM E-score
1,CTCATGAG,inactive: -0.0458
2,GCTTCAGA,inactive: -0.113
3,ATCCAAAA,inactive: 0.0765
4,ATTAGCTG,inactive: 0.0175
5,AAACATGC,active: 0.342
6,AGTAACGC,inactive: 0.00518
7,GGTTTACA,inactive: 0.268
8,AAGGCCTG,inactive: -0.168
9,ACCATACG,inactive: 0.0651
10,AGCGAATG,inactive: -0.0422
11,AGCGGGGC,inactive: -0.27
12,GATGAAAC,inactive: 0.0712
13,CGGGCGCA,inactive: -0.267
14,TAATTACA,active: 0.335
15,AAAGTTTA,inactive: 0.0868
16,ATCGAAAA,inactive: 0.0577
17,GCGTCACC,inactive: -0.21
18,CAGAAACG,inactive: -0.00093
19,AACCTTCC,inactive: -0.127
20,CTGAAATA,inactive: 0.0494
21,CTGCGGGC,inactive: -0.247

row,Sequence,PBM E-score
1,CTGCGGCC,inactive: -0.243
2,GTTCGCAA,inactive: 0.106
3,ACTATAGT,inactive: 0.0774
4,AATATCAG,inactive: 0.161
5,AAAGTACC,inactive: 0.1
6,TATAGAAA,inactive: 0.118
7,CCTCCGCG,inactive: -0.218
8,AGACCGTC,inactive: -0.133
9,ACATAGGC,inactive: 0.197
10,ATAGCCAC,inactive: -0.0729
11,CTTCTACC,inactive: -0.185
12,CCGATGTA,inactive: 0.159
13,CAGTCGTA,inactive: -0.00013
14,GTCTCGCA,inactive: -0.0552
15,GAAGTACC,inactive: 0.0526
16,GAAATAGA,inactive: 0.1
17,GGCCCCCC,inactive: -0.448
18,ACAACACC,inactive: 0.301
19,AATCGGGT,inactive: 0.00849
